From the antibiotic and cytotoxicity screens of Wong et al. (2023)
The other results are listed elsewhere or left out.

test system: S. aureus RN4220; assay: growth inhibition call (relative growth <= 0.2); settings: 50 µM

Growth inhibition call, inactive:
CC(C)NC(=O)N1C[C@H]2[C@H](C(=O)N(C)Cc3ccccn3)CCS(=O)(=O)[C@H]2C1
CNC[C@@H]1OCCCC[C@H](C)Oc2ccc(NC(=O)Nc3ccc(C(F)(F)F)cc3)cc2C(=O)N([C@@H](C)CO)C[C@@H]1C
C[C@@H]1CN([C@H](C)CO)C(=O)c2cccc(NS(=O)(=O)c3ccc(F)cc3)c2O[C@H]1CN(C)S(=O)(=O)c1cn(C)cn1
Cc1ccc(S(=O)(=O)N(C)C[C@@H]2OCCCC[C@H](C)Oc3ccc(NS(=O)(=O)c4ccc(F)cc4)cc3C(=O)N([C@H](C)CO)C[C@H]2C)cc1
COc1ccc(NC(=O)N[C@@H]2CC[C@@H](CCNC(=O)CN3CCOCC3)O[C@@H]2CO)cc1
Cc1ccccc1OC[C@@H](O)CO
C[C@@H]1CN([C@@H](C)CO)C(=O)c2c(c3ccccc3n2C)-c2ccccc2CO[C@H]1CN(C)Cc1cccc(C(F)(F)F)c1
C[C@@H]1CN([C@H](C)CO)C(=O)c2cc(NS(=O)(=O)c3cccs3)ccc2O[C@@H](C)CCCCO[C@@H]1CN(C)C(=O)CCC(F)(F)F
CC(=O)N1[C@@H](CO)[C@H](c2ccccc2)[C@@H]1CNC(=O)CN1CCOCC1
CO[C@@H]1CN(C)C(=O)c2cc(NC(=O)Nc3cccc(Cl)c3)ccc2OC[C@@H](C)N(C(=O)Nc2c(C)noc2C)C[C@@H]1C
COc1ccc(CN(C)C[C@H]2Oc3ccc(NC(=O)CCCCCC(=O)Nc4ccccc4N)cc3CC(=O)N([C@@H](C)CO)C[C@@H]2C)cc1
